± gives the standard deviation of the averaged measurements. Some of the results follow.
tested on: PfAP2-I AP2 domain 3 (GST-tagged); experiment: gcPBM binding intensity (ln(normalized median fluorescence intensity)); higher = stronger DNA binding
Outline: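 Binding intensity is defined as the maximum Masliner-normalised natural-log median intensity across replicate spots for either probe orientation. It was measured on an Agilent 4 × 180k array of primer-extended double-stranded 36-bp intergenic genomic probes and negative controls, to which GST-tagged P. falciparum DNA-binding domains made in E. coli were applied for 1 h in 1× PBS with 1% milk, 0.2 mg/ml BSA, 0.5% salmon testes DNA and 0.03% Triton X-100. Detection was by Alexa488 anti-GST antibody and scanning at 488 nm.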

| Sequence | gcPBM binding intensity (ln) |
| --- | --- |
| TAAATATATAATTGTAGTACTGTTTTATGTTCATAA [XGTACX_site1020] | 7.64 ± 0.18 |
| AAAAAATTTCAAATAACACACACTAATATATATATG [CACACA_site1426] | 7.76 ± 0.45 |
| AATATTCACATTTGTTGTACATTCCTAGTTATATAA [XGTACX_site491] | 8.24 ± 0.49 |
| AAGGAAAATTTTTGGTGTACACAAAAAAATCCAAAA [XGTACX_site3596] | 8.46 ± 0.057 |
| TAAACAGATATATTTTGTACATATTGTATATTTTGT [XGTACX_site713] | 7.38 ± 0.42 |
| TATATTAATGTTCATAGTACGTATGATTAGGAAAAA [XGTACX_site616] | 8.09 ± 0.66 |
| ACATATATGTATAATACACACACTAATATATAATTG [CACACA_site1966] | 7.86 ± 0.42 |
| ATTTAAAAAAAAACGGAATTTTTTTTTTTTTTAAAG [XGTACX_negctrl_site91] | 7.33 ± 0.41 |
| ATATTCATATATTTACGTACATACATTTATATATTT [XGTACX_site7644] | 8.04 ± 0.54 |
| GGAAAGACAGTTCACAGTACCCAGGAAATCTGCGGA [XGTACX_site4933] | 8.54 ± 1.2 |
| TTTAGTTTTTATATAGCACACATATTGTGATTATGT [CACACA_site8316] | 8.96 ± 0.16 |
| AATTTATAAAAGAAGAGGACACATATAAATATAAAT [XGTACX_site59] | 7.75 ± 0.62 |
| TATTAATGATAAGAATATTTTATATGATACATGCAT [CACACA_negctrl_site923] | 7.46 ± 0.68 |
| TATCTTTATATATAGTGTACACATTAAACAAATCTC [XGTACX_site7381] | 8.22 ± 0.25 |
| TATAAATAAATATGTACACACATATATACCTTTCAT [CACACA_site7291] | 7.82 ± 0.28 |
| AATAATTAACAAAAAAAAAAAAAAAAAAAAAAAAAA [GTGCAC_negctrl_site255] | 8.22 ± 0.71 |
| TATGTATTATATATTTGTACTCATTCTAATTCCTTC [XGTACX_site7294] | 7.66 ± 0.45 |
| TCTATACCTATTCTTACACACATATGTATAAATATA [CACACA_site6407] | 8.12 ± 0.5 |
| TTGACAACTCTTTTCATACACACAAAAAAAAAAAAA [CACACA_site2362] | 7.95 ± 0.57 |
| ACTAAAAAAATAAACACACAGATTTATATAATATAT [CACACA_site4884] | 7.75 ± 0.38 |
| TACAACCTTTAGACAAGTACAAGAATTATATGTGGC [XGTACX_site4581] | 7.99 ± 0.46 |
| TGTATATCACATGAGAGGTGGAGATGGGGATAAATA [CACACA_negctrl_site1148] | 7.96 ± 0.52 |
| ATACAATTCTTACATTGTACTTTTTTTTTTTATCAC [XGTACX_site6327] | 7.8 ± 0.65 |

| Sequence | gcPBM binding intensity (ln) |
| --- | --- |
| ACAAAATATATAGACACACAAACACAAATATGTTTT [CACACA_site3016] | 7.66 ± 0.43 |
| TAATACAGATTAAAAGGTACACTTATTTGGTATTAT [XGTACX_site4966] | 7.79 ± 0.33 |
| TTAATATGAATTATTACATGCAACTAAATATATTTA [TGCATGCA_site490] | 7.7 ± 0.48 |
| AATAAAAAAATATGAAATTATGACATATAGCATTTG [TGCATGCA_negctrl_site160] | 7.43 ± 0.56 |
| TACATAAATTAAAACACACACACACCCAAAAAAAAA [CACACA_site2261] | 8.355 ± 0.021 |
| GTGTATATTATTTTATCACACATGTACATATGTTAA [CACACA_site5473] | 7.89 ± 0.49 |
| AAAAAATAAAAAGATACACACATATGTATAATATAC [CACACA_site1496] | 7.78 ± 0.69 |
| GTTAAAAGAAAAATATGTACATAAAAAAATTAGAAA [XGTACX_site578] | 8.05 ± 0.38 |
| TTTTCAATTAAAAAAAAATTATATTTTATTATTACA [CACACA_negctrl_site142] | 7.13 ± 0.44 |
| AAGATGGTAAAGAATTGTACGCGCATATATATATTT [XGTACX_site3904] | 8.03 ± 0.56 |
| TATATATATATATGATGTACACATTTTATTATTTGT [XGTACX_site1147] | 9.28 ± 0.33 |
| CTCTTGTTTCCATATAGTACGTAATAATATATACAA [XGTACX_site2428] | 8.39 ± 0.18 |
| AATTTGATAATATCATGTACATGAAAGAATTCATGA [XGTACX_site8463] | 7.46 ± 0.52 |
| TATTATATTTTTATTTGTACGTAAAATTAAGTTATG [XGTACX_site2405] | 8.02 ± 0.014 |
| AAAAATATAAACAAACGTACGAAGTGATGATATATT [XGTACX_site2242] | 7.68 ± 0.83 |
| AAAAAAAAAAAACACACACACACACCCATATATAAA [CACACA_site1170] | 7.96 ± 0.48 |
| ACATAAAATTATTATACATGCATATTTAATTTTTTC [TGCATGCA_site353] | 7.83 ± 0.75 |
| TGTAGTCTGGAGAAGAGTACATAGTATCTGGTAGCT [XGTACX_site2029] | 7.9 ± 0.62 |
| GAATTGTATTGGTACTGTACAATTAAATTAAAAAAA [XGTACX_site1891] | 7.72 ± 0.62 |
| TTTTTTGTTAAGTTGGTGCAAACAATAGTTATTGAC | 10.6 ± 0.76 |
| GGAGCACCCAGACACACACACACATATATATATATA [CACACA_site336] | 9.35 ± 0.42 |
| TATATCTACTACACACGTACACAAAATAAGATACCT [XGTACX_site7886] | 8.09 ± 0.55 |
| ATATAGGTAAAAAGTATACACACGTTGACACATTCT [CACACA_site1199] | 7.7 ± 0.67 |

| Sequence | gcPBM binding intensity (ln) |
| --- | --- |
| ATAATATAATTTTGCAGTACCCAAAAAACAAAATAA [XGTACX_site4827] | 8.23 ± 0.35 |
| AATATGATATATATATGTACATATATATAATATAAT [XGTACX_site3072] | 7.76 ± 0.45 |
| AAAGTATAATAATACACACACTTTAAAAGTTAAATG [CACACA_site7550] | 7.71 ± 0.6 |
| AAAAGATGCGCATACACACAGATGAATAACAAAAAA [CACACA_site6865] | 7.95 ± 0.89 |
| GCACATTTTTTTATCACACATATAATTACAATATAA [CACACA_site5585] | 8.38 ± 0.47 |
| TACGTATGCCTGTGATGTACATATATATATACATAC [XGTACX_site4728] | 7.95 ± 0.54 |
| TTTCGGTTTTTTTTTATTTTTTTTTTTTTATTATTT [CACACA_negctrl_site335] | 7.51 ± 0.59 |
| GGACATTTTTATAAGGTGCACGGTTTTGATATTACT [GTGCAC_site9892] | 10.4 ± 0.18 |
| ATAATGATATATAGTACACACAAAAATGGAAGTAAA [CACACA_site7541] | 7.97 ± 0.57 |
| AACCACATACATATAACACACATATACAATATATAT [CACACA_site8607] | 8.3 ± 0.33 |
| TGACTATGTATATTTAGTACATAAAATCAATAATAT [XGTACX_site4082] | 7.81 ± 0.48 |
| AAGGGTTGCCTGTGTAGTACATATATATATATATAT [XGTACX_site8555] | 9.5 ± 0.65 |
| AAATATAAGAAAAAGGTGCTTTTTTTTTTTTTTTTT [GTGCAC_site9700] | 9.79 |
| AGGGAAAAAAAAAAAGTGCATTTGTATTAAATGAAT | 9.9 ± 0.028 |
| GTAAACAAAATATTTTGTACATATTTTATATTATTT [XGTACX_site7837] | 7.65 ± 0.58 |
| TCATTCATAAAAATAACACACAAAAAAAAAAAAAAA [CACACA_site1800] | 8 ± 0.66 |
| AAATTATATTATTGAACACACGTTTGGTAATGTTTT [CACACA_site5469] | 7.57 ± 0.65 |
| TTTTTTTTTTTAAAAAGTACACAATTAATTAATATA [XGTACX_site8494] | 7.97 ± 0.42 |
| ATATTGTTTTATATAGAACACACATAAAAATATATA [CACACA_site8314] | 7.75 ± 0.28 |
| GGCATAAATATATGCACACACAAAAAAAAAAAAAAA [CACACA_site59] | 9.54 ± 0.38 |
| GAAAGAATAAAATTTACACACATATATATATACATA [CACACA_site2250] | 7.61 ± 0.44 |
| ATATATATATATATATGTACTTATTTGAATACTAAA [XGTACX_site2330] | 9.24 ± 0.59 |
| AAAATAAGAAATAGATGTACTTATAAATAAATACAA [XGTACX_site4441] | 7.5 ± 0.28 |

| Sequence | gcPBM binding intensity (ln) |
| --- | --- |
| TTATTGAAAAAAGAACAAAAAAAAAAAGAAAAATTA [XGTACX_negctrl_site438] | 7.2 ± 0.55 |
| TATAAACATTATAAATGTACAAATATATATATATAT [XGTACX_site3218] | 9.09 ± 0.4 |
| TCATTATATCATGGTAGTACTCATTAATAATACGTA [XGTACX_site8701] | 7.93 ± 0.35 |
| GTTAATAAAAATATATGTACATAATTATTATGAAAA [XGTACX_site3030] | 7.91 ± 0.43 |
| TATATATTTTTTAAACCACACACAATATAGAGTATA [CACACA_site8106] | 7.88 ± 0.42 |
| AATATTATTTAGGAGCGTACGTTTTATTTACATATT [XGTACX_site5188] | 7.71 ± 0.53 |
| ATCTATAAATTTCCACGTACATATATATATATATAT [XGTACX_site4502] | 9.36 ± 0.34 |
| TTTTAAATATATGTGCTATTATATTAAGAGATGTAA [GTGCAC_negctrl_site560] | 8 ± 0.39 |
| CCTCTTTTTATTCTCACACACGTTTATATATAAAGT [CACACA_site4992] | 8.46 ± 0.42 |
| GAAATTTCCCATATTACACACATACTATGATATATA [CACACA_site5987] | 7.93 ± 0.6 |
| TTTTTTATTTTTGCGTGTACATAATAATGAATCTTC [XGTACX_site8077] | 8.1 ± 0.67 |
| CCTATTTATAAATACACACACATATATAAATAAATA [CACACA_site5629] | 8.09 ± 0.23 |
| AAAAAGAAATCCAATACACACCTTCAAAATGGGTAT [CACACA_site4978] | 7.53 ± 0.77 |
| TATTTATAGATATATACACACATATTTATATTTATA [CACACA_site6441] | 7.5 ± 0.51 |
| AAAAAACTATTATGTGCATGCACAAGTCAGGTAAAT [TGCATGCA_site791] | 9.58 ± 0.83 |
| CATTAAATATATAAATGTACAAATATATTTTTCAAA [XGTACX_site4429] | 7.54 ± 0.23 |
| TTAATGTAGAGAAAATGTACATTTTATTAAAACAAT [XGTACX_site6376] | 7.84 ± 0.61 |
| TTGTTCATATTTTTTATTGTGTTAATATTTATAAAA [GTGCAC_negctrl_site423] | 8.05 ± 0.41 |
| ATAAAAGAATAAATAAAACACATATATATATATATA [XGTACX_negctrl_site31] | 9.29 ± 0.47 |
| ATATAAATCAAAAACGCACACATAAATATTTATATA [CACACA_site2442] | 8.27 ± 0.25 |

Reference: the supplement of paper PMC11417369
